{"source": "the BET-seq Pho4 binding data (Le et al. 2018)", "note": "The other results are listed elsewhere or left out. These are noisy estimates, calculated here from bound and input reads.", "data": [{"target": "T1, Pho4 (S. cerevisiae) (UniProt P07270)", "T1 sequence": "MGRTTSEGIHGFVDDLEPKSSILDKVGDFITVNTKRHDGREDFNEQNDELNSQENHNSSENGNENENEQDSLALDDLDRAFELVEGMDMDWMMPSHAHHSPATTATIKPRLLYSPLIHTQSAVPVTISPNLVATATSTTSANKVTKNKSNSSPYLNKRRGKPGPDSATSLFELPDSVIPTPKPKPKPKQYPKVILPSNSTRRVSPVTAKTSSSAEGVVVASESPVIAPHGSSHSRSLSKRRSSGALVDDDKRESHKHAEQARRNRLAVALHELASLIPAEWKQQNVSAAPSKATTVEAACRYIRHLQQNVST", "assay": "relative binding free energy (BET-seq); higher = weaker binding", "settings": "reference: library average", "units": {"relative binding free energy": "kcal/mol"}, "values": [{"sequence": "GTGGACACGTGTTGAA", "relative binding free energy": 0.09}, {"sequence": "TTCGACACGTGATGTA", "relative binding free energy": 0.14}, {"sequence": "TATCGCACGTGTTGGT", "relative binding free energy": -0.07}, {"sequence": "CGGACCACGTGGGGGT", "relative binding free energy": -0.27}, {"sequence": "TGTAACACGTGATGTG", "relative binding free energy": 0.19}, {"sequence": "AGGTTCACGTGGCTTA", "relative binding free energy": 0.15}, {"sequence": "GGTGTCACGTGAAGGC", "relative binding free energy": 0.49}, {"sequence": "GGGTACACGTGTATAT", "relative binding free energy": 0.09}, {"sequence": "GTCAACACGTGATGTG", "relative binding free energy": 0.32}, {"sequence": "TAAAGCACGTGATTTG", "relative binding free energy": -0.02}, {"sequence": "GGAGACACGTGATATG", "relative binding free energy": 0.16}, {"sequence": "TGCAGCACGTGAGGTA", "relative binding free energy": 0.02}, {"sequence": "AAGGTCACGTGATGAT", "relative binding free energy": 0.25}, {"sequence": "AGCTTCACGTGTTATT", "relative binding free energy": 0.07}, {"sequence": "CGGGGCACGTGTAAAG", "relative binding free energy": -0.04}, {"sequence": "GTATGCACGTGGTAAA", "relative binding free energy": 0.04}, {"sequence": "GAATACACGTGAGGTG", "relative binding free energy": 0.29}, {"sequence": "TTCGGCACGTGGATAA", "relative binding free energy": 0.14}, {"sequence": "GTCAGCACGTGAGGTT", "relative binding free energy": 0.13}, {"sequence": "TCGGACACGTGGTGTC", "relative binding free energy": 0}, {"sequence": "AGGGTCACGTGTTTGT", "relative binding free energy": 0.13}, {"sequence": "GGATGCACGTGGTCAG", "relative binding free energy": -0.22}, {"sequence": "AAGCGCACGTGTGTGA", "relative binding free energy": -0.1}, {"sequence": "GGGGCCACGTGGACGT", "relative binding free energy": -0.11}, {"sequence": "TATGGCACGTGTGTAT", "relative binding free energy": -0.08}, {"sequence": "GAAGGCACGTGTCGTG", "relative binding free energy": 0.07}, {"sequence": "AAATTCACGTGGGGAA", "relative binding free energy": 0.18}, {"sequence": "TTTTCCACGTGTTCTA", "relative binding free energy": 0.18}, {"sequence": "TTGGACACGTGGCATG", "relative binding free energy": 0.02}, {"sequence": "GTAAACACGTGATGGG", "relative binding free energy": 0.26}, {"sequence": "TTGTACACGTGTGGGA", "relative binding free energy": 0.21}, {"sequence": "TTTTTCACGTGGATAT", "relative binding free energy": 0.25}, {"sequence": "TTGTTCACGTGAAGTG", "relative binding free energy": 0.38}, {"sequence": "TGAAGCACGTGGGAAT", "relative binding free energy": -0.15}, {"sequence": "TTAGTCACGTGTGTCT", "relative binding free energy": 0.17}, {"sequence": "TGGAGCACGTGGGCGG", "relative binding free energy": -0.18}, {"sequence": "TGGGTCACGTGGTGAC", "relative binding free energy": 0.09}, {"sequence": "AATATCACGTGGATTG", "relative binding free energy": 0.17}, {"sequence": "AGCAGCACGTGTCGGG", "relative binding free energy": 0}, {"sequence": "CGAGGCACGTGTAGTA", "relative binding free energy": -0.14}, {"sequence": "ATGGGCACGTGAGGGG", "relative binding free energy": 0.21}, {"sequence": "TGGTACACGTGGCGAT", "relative binding free energy": -0.02}, {"sequence": "TGGACCACGTGGTGGC", "relative binding free energy": -0.09}, {"sequence": "TAAGTCACGTGGGGCG", "relative binding free energy": 0.03}, {"sequence": "TTCGGCACGTGGTTGC", "relative binding free energy": -0.05}, {"sequence": "GGTGGCACGTGGAAAA", "relative binding free energy": 0.2}, {"sequence": "AGCATCACGTGGTTTG", "relative binding free energy": 0.24}, {"sequence": "TGAAGCACGTGGGGTC", "relative binding free energy": -0.28}, {"sequence": "GGAATCACGTGCGGGT", "relative binding free energy": 0.16}, {"sequence": "TGTCGCACGTGTGAGG", "relative binding free energy": 0.05}, {"sequence": "TGGTTCACGTGGAGTT", "relative binding free energy": 0.26}, {"sequence": "ATGGACACGTGTGGTA", "relative binding free energy": 0.05}, {"sequence": "TTGAGCACGTGCTGTG", "relative binding free energy": -0.14}, {"sequence": "TCAAGCACGTGTTAGG", "relative binding free energy": -0.14}, {"sequence": "GGTGGCACGTGATTAA", "relative binding free energy": 0.03}, {"sequence": "CTAGTCACGTGGGAGT", "relative binding free energy": 0}, {"sequence": "TTGGGCACGTGGAGGG", "relative binding free energy": -0.03}, {"sequence": "TTATGCACGTGTTTTT", "relative binding free energy": 0.05}, {"sequence": "TTGGACACGTGGTGCA", "relative binding free energy": -0.1}, {"sequence": "CGCATCACGTGTTGTT", "relative binding free energy": 0.14}, {"sequence": "TTTCGCACGTGGGTGC", "relative binding free energy": -0.12}, {"sequence": "TTTTACACGTGTCTCT", "relative binding free energy": 0.13}, {"sequence": "GGAACCACGTGGGGGA", "relative binding free energy": -0.16}, {"sequence": "GGATGCACGTGATTAT", "relative binding free energy": 0.16}, {"sequence": "GTGACCACGTGTGTAT", "relative binding free energy": 0.13}, {"sequence": "GAGTGCACGTGAAATT", "relative binding free energy": 0.32}, {"sequence": "TGGTACACGTGTCATG", "relative binding free energy": -0.04}, {"sequence": "GTTTGCACGTGGCTTG", "relative binding free energy": -0.01}, {"sequence": "GTAGTCACGTGGGCAG", "relative binding free energy": 0.04}, {"sequence": "TTTGTCACGTGATGAG", "relative binding free energy": 0.23}, {"sequence": "GTTAGCACGTGATGAG", "relative binding free energy": 0.13}, {"sequence": "AGTTTCACGTGTTTCG", "relative binding free energy": 0.21}, {"sequence": "AGTTTCACGTGAGTCT", "relative binding free energy": 0.25}, {"sequence": "TTTTTCACGTGGGCTC", "relative binding free energy": 0.18}, {"sequence": "GTTCGCACGTGATAGT", "relative binding free energy": 0.21}, {"sequence": "GAGTTCACGTGGAAGG", "relative binding free energy": 0.38}, {"sequence": "GTTGCCACGTGGAGTA", "relative binding free energy": -0.16}, {"sequence": "GTTGCCACGTGGGGAT", "relative binding free energy": -0.1}, {"sequence": "TTTGGCACGTGATGCC", "relative binding free energy": -0.01}, {"sequence": "GGTGTCACGTGTCGAA", "relative binding free energy": 0.18}, {"sequence": "TCGGTCACGTGTTAAT", "relative binding free energy": 0.17}, {"sequence": "TTTAACACGTGTATCT", "relative binding free energy": 0.05}, {"sequence": "GTATGCACGTGGTGCA", "relative binding free energy": -0.2}, {"sequence": "GGTAGCACGTGAAGTC", "relative binding free energy": 0.3}, {"sequence": "GTGCGCACGTGTGTTT", "relative binding free energy": 0.04}, {"sequence": "TCTTGCACGTGAAAGG", "relative binding free energy": 0.16}, {"sequence": "GAGGTCACGTGTTGGG", "relative binding free energy": 0.18}, {"sequence": "TAGGACACGTGTGAAG", "relative binding free energy": 0.05}, {"sequence": "ATAGGCACGTGGGATA", "relative binding free energy": -0.32}, {"sequence": "ATGTACACGTGGGGCA", "relative binding free energy": -0.13}, {"sequence": "TAGTGCACGTGGAAGG", "relative binding free energy": 0.08}, {"sequence": "TTGGACACGTGAGAAG", "relative binding free energy": 0.37}, {"sequence": "GCCTTCACGTGGTTTG", "relative binding free energy": 0.23}, {"sequence": "GGTTTCACGTGATGGG", "relative binding free energy": 0.48}, {"sequence": "TTGGGCACGTGTCGCG", "relative binding free energy": -0.11}, {"sequence": "TTTGGCACGTGGCTTA", "relative binding free energy": -0.12}, {"sequence": "AGGGGCACGTGATGTT", "relative binding free energy": 0.11}, {"sequence": "ATTTGCACGTGTCTTG", "relative binding free energy": 0}, {"sequence": "AGAGTCACGTGGAACG", "relative binding free energy": 0.24}, {"sequence": "TGTTCCACGTGTTATT", "relative binding free energy": 0}, {"sequence": "GGTAGCACGTGTTGGG", "relative binding free energy": -0.03}, {"sequence": "AGGGCCACGTGGCGTG", "relative binding free energy": -0.21}, {"sequence": "GGTCTCACGTGTTGGG", "relative binding free energy": 0.37}, {"sequence": "GAAGTCACGTGTTATT", "relative binding free energy": -0.02}, {"sequence": "ATTTTCACGTGTTGAG", "relative binding free energy": 0.18}, {"sequence": "GTATTCACGTGAGGGT", "relative binding free energy": 0.39}, {"sequence": "ATTGGCACGTGCGGAT", "relative binding free energy": -0.17}, {"sequence": "TATAGCACGTGTAGTT", "relative binding free energy": -0.03}, {"sequence": "GGCAACACGTGGGTTT", "relative binding free energy": -0.16}, {"sequence": "TTTTTCACGTGGAGTT", "relative binding free energy": 0.29}, {"sequence": "AGTGTCACGTGCTCGG", "relative binding free energy": 0.13}, {"sequence": "TTGTTCACGTGATGTG", "relative binding free energy": 0.4}, {"sequence": "GGGGACACGTGGAGAT", "relative binding free energy": 0.08}, {"sequence": "TTCTGCACGTGTAGGT", "relative binding free energy": 0.13}, {"sequence": "TAGATCACGTGAGGGT", "relative binding free energy": 0.3}]}]}
